# Among all 48,000 compounds or so, about 1,200 (2.5%) were called active. About 2% were inconclusive and are not listed.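 The calls were made as follows: active = activation of at least 60% and not above a set upper limit (about 1 call in 100 departs from these limits); inconclusive = activation of 40% to 60%, or above that upper limit; inactive = activation under 40%.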 The list shows a part of the results.
# Biological target: Probable G-protein coupled receptor 32 (Homo sapiens) (UniProt O75388)
# Assay: qHTS for Agonists of Human Resolvin D1 Receptor DRV1; also: 0% is about no effect
# Settings: CHO-K1 GPR32 beta-arrestin PathHunter luminescence, 90 min; at 76.9 µM; hits give high values; zero percent set by DMSO-only wells
# Outline: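 Agonism was scored as beta-arrestin recruitment to ProLink-fused GPR32 in stably transfected CHO-K1 cells, giving a chemiluminescent beta-Gal signal; compounds were incubated 90 min at 37 °C.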
# Chain of UniProt O75388 (O75388 whole entry, looked up): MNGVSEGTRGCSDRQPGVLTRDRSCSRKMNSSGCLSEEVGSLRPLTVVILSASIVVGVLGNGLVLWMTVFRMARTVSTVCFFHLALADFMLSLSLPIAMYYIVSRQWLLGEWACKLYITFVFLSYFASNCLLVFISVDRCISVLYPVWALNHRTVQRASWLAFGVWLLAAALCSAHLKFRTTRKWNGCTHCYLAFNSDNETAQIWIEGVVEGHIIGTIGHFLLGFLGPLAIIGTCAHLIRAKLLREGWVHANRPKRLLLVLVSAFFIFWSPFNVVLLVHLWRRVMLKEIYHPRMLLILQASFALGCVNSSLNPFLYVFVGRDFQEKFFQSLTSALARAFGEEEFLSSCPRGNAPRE
row,SMILES,activation
1,CC(C)(C)c1cc(C(C)(C)C)c2oc(=O)c(-c3nc4ccccc4[nH]3)cc2c1,inactive: -2.81%
2,O=C(CSc1nc2ccccc2c2nc(-c3ccccc3)nn12)Nc1ccc(Br)cc1,inactive: 13%
3,CCS(=O)(=O)N1CC(=O)N(c2ccccc2C)C(C)(C(=O)NC2CCCCC2)C1 (centres undefined),inactive: 1.79%
4,COCCCNC(=O)Cn1c(=O)n(-c2ccc(C)cc2)c(=O)c2c1c1cc(C)ccc1n2C,inactive: 14.1%
5,Cc1ccc(NC(=O)CN2CCCN(Cc3cc(C)ccc3C)S2(=O)=O)c(Cl)c1,inactive: -21.4%
6,COc1cccc(N2CCN(C(=O)C3CCC(CNS(=O)(=O)c4ccc(Br)s4)CC3)CC2)c1 (centres undefined),inactive: 48.4%
7,Cc1ccc(Cl)cc1N1CCN(C(=O)c2cn(C3CCCCC3)c(=O)c3c2c2ccccc2n3C)CC1,inactive: -2.08%
8,COc1ccc(NC(=O)CSc2nnc(-c3ccc(C)cc3)o2)cc1,inactive: -6.89%
9,CN(C)c1ccc(C(CNC(=O)COc2ccc(Cl)cc2)N2CCOCC2)cc1 (centres undefined),inactive: -15.2%
10,COc1cccc(-n2ccnc2SCC(=O)Nc2cccc(C)c2C)c1,inactive: 15.7%
11,CCCC(=O)NCC(c1ccc2c(c1)OCO2)N1CCN(c2ccc(F)cc2)CC1 (centres undefined),inactive: -21.4%
12,CCc1ccc(NC(=O)Cn2cnc3sc(C)c(S(=O)(=O)N4CCC(C)CC4)c3c2=O)cc1,inactive: -6%
13,COc1ccc(-c2nc3c(C#N)c[nH]n3c2NC2CCCCC2)c(OC)c1,inactive: -23.5%
14,COc1ccc(-n2ncc(C(=O)NCc3ccccc3)c2C2CCN(C(=O)OC(C)(C)C)CC2)cc1,inactive: -19.4%
15,COc1ccc(CCNC(=O)CCn2c(=O)c3cccn3c3ccc(F)cc32)c(OC)c1OC,inactive: -20%
16,Cc1ccc(OCc2nc3ccccc3n2CC(C)C)cc1,inactive: -24.7%
17,CCOc1ccccc1CNC(=O)Nc1cn(CC(C)C)c(=O)c2ccccc12,inactive: -32.6%
18,Cc1cc2c(cc1S(=O)(=O)NCc1ccc(N(C)C)cc1)OCC(=O)N2,inactive: -1.72%
19,CC(Oc1ccccc1)C(=O)Nc1nc2ccc(S(N)(=O)=O)cc2s1 (centres undefined),inactive: -25.2%
20,CC1(c2ccc(Cl)cc2)CC(C)(C)N(C(=O)c2ccccc2)c2ccccc21 (centres undefined),inactive: 8.59%
21,Cc1ccc(CN2CCC(CNc3ncnc4onc(-c5ccc(Cl)cc5)c34)CC2)cc1,inactive: 16.9%
22,CCCN(C(=O)c1cc2c(s1)-c1ccccc1SC2)c1ccccc1F,inactive: -1.84%
23,COc1ccc(N(CC(=O)NC(C)c2ccccc2)S(=O)(=O)c2c(C)noc2C)cc1 (centres undefined),inactive: -23.5%
24,CC1CN(C(=O)Nc2ccc(C(=O)NCCc3ccccc3)cc2)c2ccccc2S1 (centres undefined),inactive: -17.3%
25,O=C(CSc1nccn1Cc1ccccc1)NCc1ccc(F)cc1,inactive: 15.5%
26,Cc1cc(C)nc(NS(=O)(=O)c2ccc(NC(=O)COc3ccc(Cl)cc3C)cc2)n1,inactive: 34.8%
27,CCOc1ccc(C(=O)Nc2cc(-c3nc4ccccc4o3)ccc2C)cc1Cl,inactive: 13.5%

row,SMILES,activation
1,CCN(Cc1ccccc1)C(=O)c1c(C)oc2ncn(C)c(=O)c12,inactive: -7.76%
2,CCOc1cc(-c2ccc(OC(=O)c3ccccc3F)cc2)cc(=O)c2c(C)oc(C)c12,inactive: -21.7%
3,O=C(CCCCCCC(=O)Nc1ccccc1)NO,inactive: 0.441%
4,COc1ccc(-n2nc3ccc(NC(=O)c4ccc(-c5cc(Cl)ccc5Cl)o4)cc3n2)cc1,inactive: -8.38%
5,CCc1ccc2c(-c3cccc(Cl)c3)nc(=O)n(CC)c2n1,inactive: -5.33%
6,COc1ccc(-n2ccnc(NCc3ccc(Cl)cc3)c2=O)cc1,active: 60.3%
7,COc1ccc(NC(=O)CCc2nnc3n(C)c(=O)c4sccc4n23)cc1,inactive: -8.7%
8,C=CCc1ccccc1OCCSc1nc(-c2ccc(C(C)(C)C)cc2)nc2cc(=O)[nH]n12,inactive: -1.93%
9,Clc1cccc(N2CCN(c3nc4ccccc4n4cnnc34)CC2)c1,inactive: -13.2%
10,Cc1cc(C)cc(NC(=O)CCC(=O)N2Cc3ccccc3Oc3ncccc32)c1,inactive: -14.2%
11,CCN(c1cc(C)cc(C)c1)S(=O)(=O)c1nnc(NC(=O)C2CCCCC2)s1,inactive: -18.4%
12,O=C(Nc1ccc(Br)c2cccnc12)c1cccc2ccccc12,inactive: 31.5%
13,CC(C)ON([C@@H](C(=O)NO)C(C)C)S(=O)(=O)c1ccc(-c2ccccc2)cc1,inactive: -9.02%
14,COc1cccc(NC(=O)C2CCCN(S(=O)(=O)c3c(C)[nH]c(=O)[nH]c3=O)C2)c1 (centres undefined),inactive: 6.06%
15,CCCc1cnc2c(c1SCC(=O)N(C)c1ccccc1)c(=O)n(C)c(=O)n2C,inactive: -26.1%
16,Cc1c(Cl)ccc2sc(NC(=O)c3ccc(S(=O)(=O)N4CCCc5ccccc54)cc3)nc12,inactive: -10.5%
17,Cc1c(Cl)cccc1-c1ccc(CNc2ccc3[nH]c(=O)[nH]c3c2)o1,inactive: 19.7%
18,Cc1ccc(CCNC(=O)c2cc3sccc3n2Cc2ccc(C)cc2)cc1,inactive: -4.97%
19,Cc1cc(C)cc(-n2c(SCC(=O)N3CCCCC3)nc3c([nH]c4ccccc43)c2=O)c1,inactive: 5.06%
20,CC1CCN(S(=O)(=O)c2ccc3c(c2)oc(=O)n3CC(=O)NCc2ccc(F)cc2)CC1,inactive: 17.8%
21,COc1cc2ccccc2cc1C(=O)Nc1ccc2oc(-c3ccc(F)cc3)nc2c1,inactive: 8.56%
22,CCc1ccccc1NC(=O)c1nnn(-c2ccc(F)cc2)c1C,inactive: -5.59%
23,CCOc1ccc(NC(=O)Cn2c(=O)n(Cc3ccco3)c(=O)c3oc4ccccc4c32)cc1,inactive: -16.5%
24,COc1ccc(NC(=O)c2oc3ccccc3c2NC(=O)c2cccc(F)c2)c(OC)c1,inactive: 13.8%
25,CC(CCc1ccccc1)NC(=O)Cn1ncc2c3ccccc3n(Cc3ccc(F)cc3)c2c1=O (centres undefined),inactive: -10.2%
26,CCCn1c(=O)c2sccc2n2c(CCCC(=O)NCCc3ccc(Cl)cc3)nnc12,inactive: -11.3%
27,Cc1ccc(CNC(=O)c2cc3sccc3n2Cc2ccc(Cl)cc2)cc1,inactive: 42.5%
